# Data reported in the supplement of paper PMC8728848.
# Some of the results follow.
# What was measured:
# Test in all cases: glycan array binding signal (z-score within array); higher = stronger binding
# Details in all cases: glycan notation: IUPAC condensed, linker removed
# Fuc(a1-2)[Gal(a1-3)]Gal = biological target: Fuc(a1-2)[Gal(a1-3)]Gal
# Procedure, shortened: (§1)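 From the Consortium for Functional Glycomics database, 3228 arrays were curated, keeping only those whose protein sequence was available. Binding is given as a within-array Z-score averaged across arrays sharing a protein sequence and across linkers. Negative Z-scores can be read as non-binding.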
# [1] = biological target: Fuc(a1-2)[Gal(a1-3)]Gal(b1-3)GlcNAc
# Procedure, shortened: as §1
# [2] = biological target: Fuc(a1-2)[Gal(a1-3)]Gal(b1-3)GlcNAc(b1-2)Man(a1-3)[Fuc(a1-2)[Gal(a1-3)]Gal(b1-3)GlcNAc(b1-2)Man(a1-6)]Man(b1-4)GlcNAc(b1-4)GlcNAc
# Procedure, shortened: as §1
# [3] = biological target: Fuc(a1-2)[Gal(a1-3)]Gal(b1-4)Glc
# Procedure, shortened: as §1
# [4] = biological target: Fuc(a1-2)[Gal(a1-3)]Gal(b1-4)GlcNAc
# Procedure, shortened: as §1
# [5] = biological target: Fuc(a1-2)[Gal(a1-3)]Gal(b1-4)GlcNAc(b1-2)Man(a1-3)[Fuc(a1-2)[Gal(a1-3)]Gal(b1-4)GlcNAc(b1-2)Man(a1-6)]Man(b1-4)GlcNAc(b1-4)GlcNAc
# Procedure, shortened: as §1
# [6] = biological target: Fuc(a1-2)[Gal(a1-3)]Gal(b1-4)[Fuc(a1-3)]GlcNAc
# Procedure, shortened: as §1
# [7] = biological target: Fuc(a1-2)[Gal(a1-4)]Gal(b1-4)GlcNAc
# Procedure, shortened: as §1
# [8] = biological target: Fuc(a1-2)[GalNAc(a1-3)]Gal
# Procedure, shortened: as §1
# [9] = biological target: Fuc(a1-2)[GalNAc(a1-3)]Gal(b1-3)GalNAc(a1-3)[Fuc(a1-2)]Gal(b1-4)GlcNAc
# Procedure, shortened: as §1
# [10] = biological target: Fuc(a1-2)[GalNAc(a1-3)]Gal(b1-3)GlcNAc
# Procedure, shortened: as §1
# [11] = biological target: Fuc(a1-2)[GalNAc(a1-3)]Gal(b1-3)GlcNAc(b1-2)Man(a1-3)[Fuc(a1-2)[GalNAc(a1-3)]Gal(b1-3)GlcNAc(b1-2)Man(a1-6)]Man(b1-4)GlcNAc(b1-4)GlcNAc
# Procedure, shortened: as §1
# [12] = biological target: Fuc(a1-2)[GalNAc(a1-3)]Gal(b1-4)Glc
# Procedure, shortened: as §1
# [13] = biological target: Fuc(a1-2)[GalNAc(a1-3)]Gal(b1-4)GlcNAc
# Procedure, shortened: as §1
# [14] = biological target: Fuc(a1-2)[GalNAc(a1-3)]Gal(b1-4)GlcNAc(b1-2)Man(a1-3)[Fuc(a1-2)[GalNAc(a1-3)]Gal(b1-4)GlcNAc(b1-2)Man(a1-6)]Man(b1-4)GlcNAc(b1-4)GlcNAc
# Procedure, shortened: as §1
# [15] = biological target: Fuc(a1-2)[GalNAc(a1-3)]Gal(b1-4)GlcNAc(b1-3)Gal(b1-4)GlcNAc
# Procedure, shortened: as §1
# [16] = biological target: Fuc(a1-2)[GalNAc(a1-3)]Gal(b1-4)GlcNAc(b1-3)Gal(b1-4)GlcNAc(b1-3)Gal(b1-4)GlcNAc
# Procedure, shortened: as §1
# [17] = biological target: Fuc(a1-2)[GalNAc(a1-3)]Gal(b1-4)[Fuc(a1-3)]GlcNAc
# Procedure, shortened: as §1
# [18] = biological target: Fuc(a1-2)[GalNAc(a1-4)]Gal(b1-4)GlcNAc
# Procedure, shortened: as §1
# [19] = biological target: Fuc(a1-2)[GalNAc(b1-3)]Gal
# Procedure, shortened: as §1
# Fuc(a1-3)GlcNAc = biological target: Fuc(a1-3)GlcNAc
# Procedure, shortened: as §1
# [20] = biological target: Fuc(a1-3)[Gal(b1-4)]Glc6S
# Procedure, shortened: as §1
# [21] = biological target: Fuc(a1-3)[Gal(b1-4)]GlcNAc
# Procedure, shortened: as §1
# [22] = biological target: Fuc(a1-3)[Gal(b1-4)]GlcNAc(b1-2)Man(a1-3)[Fuc(a1-3)[Gal(b1-4)]GlcNAc(b1-2)Man(a1-6)]Man(b1-4)GlcNAc(b1-4)GlcNAc
# Procedure, shortened: as §1
# [23] = biological target: Fuc(a1-3)[Gal(b1-4)]GlcNAc(b1-3)Gal(b1-3)[Fuc(a1-4)]GlcNAc
# Procedure, shortened: as §1
# [24] = biological target: Fuc(a1-3)[Gal(b1-4)]GlcNAc(b1-3)GalNAc
# Procedure, shortened: as §1
# [25] = biological target: Fuc(a1-3)[Gal(b1-4)]GlcNAc(b1-4)Gal(b1-4)[Fuc(a1-3)]GlcNAc
# Procedure, shortened: as §1
# [26] = biological target: Fuc(a1-3)[Gal(b1-4)]GlcNAc(b1-4)Gal(b1-4)[Fuc(a1-3)]GlcNAc(b1-4)Gal(b1-4)[Fuc(a1-3)]GlcNAc
# Procedure, shortened: as §1
# [27] = biological target: Fuc(a1-3)[Gal(b1-4)]GlcNAc(b1-6)[Gal(b1-3)GlcNAc(b1-3)]Gal(b1-4)Glc
# Procedure, shortened: as §1
# [28] = biological target: Fuc(a1-3)[Gal(b1-4)]GlcNAc6S
# Procedure, shortened: as §1
binder,measurement,setting,value
"cupB6 (Pseudomonas aeruginosa), Q02SP7 (protein) MSMRLFPGRVSLRRRPGAQARQALVLGLCCLTGGQAWALNEVALNCSFGNGKGLPWRVVNELTSGTAKGTVLFARPVSLFLSYKPQASQEAHELVLGGNWSGVGYPGPYGTVASDVKGIGYRISVDAQDGVKRVIPVDNQPHALDKRVTSFSGSTTSDYLQELVLTVDPGELPAGDLKVTSVSGSATLNLWAVDRLKGEASIGSVLAVPADNYPTGVCRKPYSLIGPASIAIGGGPPPPPIPKKCKVEVGREINVKLGSVALKNFPRVNDTSTERSFDISLSECAALAKPEIAFRDKYVSAQQADPTILSLKSGGAAGFGIVVKNGLDQQRIRFDGTPYPMRRVGDSADLPLSAAYIRIGAEGELKAGVADGAAEFTFTFP",glycan array binding signal (z-score),Fuc(a1-2)[Gal(a1-3)]Gal,-0.026
same,glycan array binding signal (z-score),[1],0.045
same,glycan array binding signal (z-score),[2],-0.057
same,glycan array binding signal (z-score),[3],-0.064
same,glycan array binding signal (z-score),[4],0.016
same,glycan array binding signal (z-score),[5],-0.008
same,glycan array binding signal (z-score),[6],0.027
same,glycan array binding signal (z-score),[7],-0.244
same,glycan array binding signal (z-score),[8],-0.125
same,glycan array binding signal (z-score),[9],-0.021
same,glycan array binding signal (z-score),[10],0.154
same,glycan array binding signal (z-score),[11],-0.074
same,glycan array binding signal (z-score),[12],-0.018
same,glycan array binding signal (z-score),[13],-0.142
same,glycan array binding signal (z-score),[14],0.216
same,glycan array binding signal (z-score),[15],0.097
same,glycan array binding signal (z-score),[16],0.162
same,glycan array binding signal (z-score),[17],0.149
same,glycan array binding signal (z-score),[18],-0.212
same,glycan array binding signal (z-score),[19],-0.269
same,glycan array binding signal (z-score),Fuc(a1-3)GlcNAc,-0.2
same,glycan array binding signal (z-score),[20],-0.171
same,glycan array binding signal (z-score),[21],-0.113
same,glycan array binding signal (z-score),[22],-0.088
same,glycan array binding signal (z-score),[23],0.089
same,glycan array binding signal (z-score),[24],0.027
same,glycan array binding signal (z-score),[25],0.005
same,glycan array binding signal (z-score),[26],-0.156
same,glycan array binding signal (z-score),[27],0.035
same,glycan array binding signal (z-score),[28],0.17
